# Publication PMC4336329 (PLoS ONE, 2015)
# About 2,200 (0.71%) of roughly 310,000 compounds showed an effect of 50% or more. Effects have a minus sign here. Some of the results follow.
# Molecular target: human ether-à-go-go-related gene (hERG) potassium channel (human, UniProt Q12809)
# Experiment: primary screen, population patch clamp on CHO cells stably expressing hERG
# human ether-à-go-go-related gene (hERG) potassium channel, sequence (Q12809 whole entry, looked up): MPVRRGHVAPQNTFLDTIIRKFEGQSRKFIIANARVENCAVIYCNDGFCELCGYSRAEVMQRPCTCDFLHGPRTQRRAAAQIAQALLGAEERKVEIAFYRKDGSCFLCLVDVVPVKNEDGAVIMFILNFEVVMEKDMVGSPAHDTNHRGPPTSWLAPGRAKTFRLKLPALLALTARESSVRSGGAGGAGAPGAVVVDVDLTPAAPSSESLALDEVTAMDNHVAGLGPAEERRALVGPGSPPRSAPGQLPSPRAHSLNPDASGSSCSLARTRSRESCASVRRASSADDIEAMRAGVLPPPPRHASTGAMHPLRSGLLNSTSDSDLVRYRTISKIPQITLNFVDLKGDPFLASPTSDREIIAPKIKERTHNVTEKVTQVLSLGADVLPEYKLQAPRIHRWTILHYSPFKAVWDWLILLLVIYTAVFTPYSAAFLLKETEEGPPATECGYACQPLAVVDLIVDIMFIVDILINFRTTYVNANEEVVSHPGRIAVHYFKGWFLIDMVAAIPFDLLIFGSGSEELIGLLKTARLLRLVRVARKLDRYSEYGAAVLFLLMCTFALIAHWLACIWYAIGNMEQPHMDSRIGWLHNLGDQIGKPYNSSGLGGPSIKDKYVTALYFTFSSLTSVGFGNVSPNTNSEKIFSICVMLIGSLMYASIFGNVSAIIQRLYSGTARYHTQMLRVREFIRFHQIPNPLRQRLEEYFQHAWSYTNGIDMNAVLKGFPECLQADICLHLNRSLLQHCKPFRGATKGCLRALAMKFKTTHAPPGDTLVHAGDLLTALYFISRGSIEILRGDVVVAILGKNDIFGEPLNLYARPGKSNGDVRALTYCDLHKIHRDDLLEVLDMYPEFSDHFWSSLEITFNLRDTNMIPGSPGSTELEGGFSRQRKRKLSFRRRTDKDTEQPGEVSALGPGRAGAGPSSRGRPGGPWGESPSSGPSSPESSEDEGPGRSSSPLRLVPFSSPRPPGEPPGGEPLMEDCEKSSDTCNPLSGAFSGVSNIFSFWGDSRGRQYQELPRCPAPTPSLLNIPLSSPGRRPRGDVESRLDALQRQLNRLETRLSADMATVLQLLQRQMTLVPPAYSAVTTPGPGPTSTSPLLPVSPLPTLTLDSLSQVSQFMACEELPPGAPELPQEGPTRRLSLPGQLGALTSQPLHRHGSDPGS
row,Compound,"hERG current change (%, negative = inhibition) at 1uM [%]"
1,CCN(CC(=O)NC1CCS(=O)(=O)C1)S(=O)(=O)c1ccc(C)c(C)c1 (stereo not shown),7.39
2,CC[N+]1(CC)CC2=Cc3c(ccc4ccccc34)CC2C1.[Br-] (stereo not shown),3.14
3,CCOc1ccc(NC(=O)N2CCC(n3c(=O)[nH]c4ccccc43)CC2)cc1,-1.3
4,O=C(CSc1nnc(CN2CCCCCC2=O)n1-c1ccccn1)NCC(F)(F)F,3.46
5,COc1ccc(CNc2nc3nc(C)c(Cl)c(C)n3n2)cc1OC,11.1
6,COc1ccc(S(=O)(=O)N2CCC(C(=O)NCc3ccncc3)CC2)cc1Cl,8.61
7,COc1ccc(NC(=O)C(C)N2C(=O)c3ccccc3S2(=O)=O)c(OC)c1 (stereo not shown),6.98
8,Cl.Clc1ccc(OCCCN2CCc3ccccc3C2)c(Br)c1,12.2
9,OC1CSc2nc3ccccc3n2C1 (stereo not shown),26.7
10,O=C(NCc1ccncc1)c1cncc(Br)c1,3.3
11,O=c1c(-c2ccc([N+](=O)[O-])cc2)coc2c(O)c(O)ccc12,8.94
12,COc1ccc(OC)c(NC(=O)CC2(CC(=O)O)CCCC2)c1,5.96
13,COc1ccc(CNC(=O)C2CCN(S(=O)(=O)N3CCCC3)CC2)cc1,17.7
14,CCOC(=O)N1CCC(NS(=O)(=O)c2cc3c(cc2C)NC(=O)CO3)CC1,6.3
15,CCOCCCn1c(=NC(=O)c2cccs2)c(C#N)cc2c(=O)n3cccc(C)c3nc21,-53.9
16,Cc1csc(=O)n1CCC(=O)OCC(=O)Nc1ccc(S(N)(=O)=O)cc1,15.4
17,O=C(NCCN1CCN(C(=O)c2ccc(Br)cc2)CC1)c1ccc(Br)cc1,-63.5
18,O=C(NCc1cccnc1)/C(=C\c1ccc(-c2cccc(Cl)c2)o1)S(=O)(=O)c1ccccc1,5.61
19,CC1(C)CNC(=O)C=C(c2ccccc2)C1,13.8
20,COc1cc2ccccc2nn1,12.7
21,CCS(=O)(=O)N1Cc2ccccc2CC1C(=O)Nc1cc(S(C)(=O)=O)ccc1Cl (stereo not shown),2.22
22,O=C(CN1C(=O)c2ccccc2C1=O)NCC(=O)OCC(=O)c1ccc(Br)cc1,7.31
23,CC(=O)N1c2ccc(C)cc2C(c2ccccc2)CC1C (stereo not shown),-0.117
24,Cc1ccccc1CSc1nnc(CCCCCNC(=O)OC(C)(C)C)o1,10.8
25,Cc1nnc(NC(=O)CSc2nnc(NC(=O)C(C)(C)C)s2)s1,19.4
26,O=C(COC(=O)CCC(=O)c1cccs1)NC1CC1,11.5
27,CC1=NN(c2ccccc2)C(=O)/C1=C\c1ccc(Oc2ccc([N+](=O)[O-])cc2[N+](=O)[O-])cc1,14.7
28,CCOC(=O)c1ccc2nc(C(F)(F)F)[nH]c(=O)c2c1,5.59

row,Compound,"hERG current change (%, negative = inhibition) at 1uM [%]"
1,O=C(O)c1cccc(Nc2ccncc2[N+](=O)[O-])c1,12.3
2,O=C(COC(=O)C(O)C(O)C(=O)OCC(=O)c1ccc(C(F)(F)F)cc1)c1ccc(C(F)(F)F)cc1 (stereo not shown),12.3
3,Cc1ccc(-c2cc(C(=O)NCc3ccccn3)c3ccccc3n2)cc1C,0.464
4,O=C(Nc1ccccc1C(=O)O)c1ccc(Br)o1,14.5
5,CC(=O)N(NC(=O)c1ccc(C)cc1)C1CC(=O)N(c2ccccc2Cl)C1=O (stereo not shown),0.67
6,Cc1ccc(S(=O)(=O)CCC(=O)Nc2ccc(S(=O)(=O)N(C)C)cc2)cc1,9.29
7,Cc1cc(=O)n(-c2ccc3ccccc3n2)[nH]1,-1.93
8,OCCC1CN(CCCn2cccn2)CCN1Cc1ccccc1 (stereo not shown),8.59
9,N#C/C(=C1\CCCN1)c1nc2ccccc2c(=O)[nH]1,19.9
10,Nc1cc(=O)[nH]c(SCC(=O)Nc2ccc(Oc3ccccc3)cc2)n1,5.61
11,CCn1c(CNC(=O)COc2ccc(C(C)C)cc2)nnc1SCC(=O)NC1CCCCC1C (stereo not shown),-10.6
12,CCN(CC)c1nc2ccccc2n(Cc2cccc(OC)c2)c1=O,8.21
13,C/C(CCN1CCc2nc(-c3ccccc3)c(-c3ccccc3)cc2C1)=N\O[C@@H](C)c1cn([C@H](CO)Cc2ccccc2)nn1,-1.81
14,CC1CCN(c2cc(N3CCC(C)CC3)c([N+](=O)[O-])cc2/C=C(\C#N)c2nn(-c3ccccc3)c(N)c2C#N)CC1,-14.1
15,O=C(NNS(=O)(=O)c1cc(Cl)cc(Cl)c1)c1sccc1-n1cccc1,8.59
16,Cc1c(C(=O)Nc2nc3ccccc3[nH]2)cccc1[N+](=O)[O-],2.8
17,Cn1cnnc1SCC(=O)N1CCc2ccccc21,13.1
18,COc1ccc(NC(=O)CCNC(=O)Cn2cnc3ccccc3c2=O)cc1OC,25.6
19,Cc1ccc(S(=O)(=O)c2c(N)n(CCCO)c3nc4ccccc4nc23)cc1,3.28
20,COc1ccc(-c2noc(CCC(=O)NCC3CCCO3)n2)cc1 (stereo not shown),12.5
21,CC(C)CCNC(=O)C12CN(Cc3ccccc3)CC1C(c1cccc([N+](=O)[O-])c1)=NO2 (stereo not shown),9.69
22,N#Cc1ccc(CSc2nnc(NC(=O)CN3C(=O)C4CC=CCC4C3=O)s2)cc1 (stereo not shown),5.94
23,CCOc1ccccc1N1CCN(Cc2ccc(OC)c(OC)c2)CC1,-46
24,CC(=O)c1ccc(-n2c(SCC(=O)c3c[nH]c4ccccc34)nc3ccccc3c2=O)cc1,13.6
25,CC(=O)Oc1ccccc1C(=O)Oc1ccccc1C(=O)O,11.5
26,Cc1onc(-c2ccccc2)c1C(=O)N1CC(C)OC(C)C1 (stereo not shown),13.1
27,CCc1ccccc1C1C(=O)c2ccccc2C1=O,20.9
